B1: human CTLA-4-IgG2 fusion protein (Fc fusion)
chain: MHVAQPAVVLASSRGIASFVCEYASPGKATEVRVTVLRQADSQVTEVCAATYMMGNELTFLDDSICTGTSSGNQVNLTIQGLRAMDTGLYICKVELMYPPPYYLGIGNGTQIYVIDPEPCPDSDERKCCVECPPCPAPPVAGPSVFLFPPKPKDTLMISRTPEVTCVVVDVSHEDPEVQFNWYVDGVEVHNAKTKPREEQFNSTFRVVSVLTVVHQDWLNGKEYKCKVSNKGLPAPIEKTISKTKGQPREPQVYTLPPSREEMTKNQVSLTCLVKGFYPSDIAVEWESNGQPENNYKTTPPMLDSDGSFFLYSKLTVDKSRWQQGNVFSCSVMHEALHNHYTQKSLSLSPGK
notes: Disulfide-linked dimer; also called hCTLA-4-IgG2; hCTLA-4-Ig
B2: LEA29Y-Ig fusion protein (Fc fusion)
chain: MHVAQPAVVLASSRGIASFVCEYASPGKYTEVRVTVLRQADSQVTEVCAATYMMGNELTFLDDSICTGTSSGNQVNLTIQGLRAMDTGLYICKVELMYPPPYYEGIGNGTQIYVIDPEPCPDSDQ[human IgG1 Fc with changes skipped]
notes: dimer; also called Belatacept; LEA-Ig

Experiments:
[1] = target: T1, human CD80-murine Ig fusion protein (human); test: SPR Biacore, hCD80-mIg captured
T1 construct: Bought (Ancell #510-820); also called hCD80-mIg; human CD80-murine IgG
T1 chain: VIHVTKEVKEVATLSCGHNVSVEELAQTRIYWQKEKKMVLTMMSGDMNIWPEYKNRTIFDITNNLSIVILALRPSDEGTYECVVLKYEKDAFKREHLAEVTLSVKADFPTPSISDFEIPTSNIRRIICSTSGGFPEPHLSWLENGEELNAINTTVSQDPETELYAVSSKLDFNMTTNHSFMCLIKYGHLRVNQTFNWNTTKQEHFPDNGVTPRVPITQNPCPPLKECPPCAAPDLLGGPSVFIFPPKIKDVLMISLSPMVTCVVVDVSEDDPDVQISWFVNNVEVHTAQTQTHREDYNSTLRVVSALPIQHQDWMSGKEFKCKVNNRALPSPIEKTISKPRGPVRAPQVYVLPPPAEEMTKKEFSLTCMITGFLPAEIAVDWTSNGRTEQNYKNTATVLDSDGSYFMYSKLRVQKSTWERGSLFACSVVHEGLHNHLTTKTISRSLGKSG
Procedure: (§1) All Biacore™ analyses were performed on a Biacore™ 2000 system (GE Healthcare) at room temperature (RT, 25° C.). HBS-EP buffer (10 mM HEPES (pH 7.4), 150 mM NaCl, 3 mM EDTA, 0.005% surfactant P20) was used as the flow buffer for all experiments.
(§2) Rabbit anti-mouse IgG antibody (GE Healthcare, #BR-1005-14) was immobilized on CM5 sensor chips (GE Healthcare, #BR-1000-14) according to the manufacturer's protocol. Antibody was diluted to 30 μg/ml in immobilization buffer (10 mM sodium acetate, pH 5.0 (BR-1003-51)). At a flow rate of 5 μl/minute, sensor chip CM5 was activated with a 35 μl injection of a mixture of 1-Ethyl-3-[3-dimethylaminopropyl]carbodiimide hydrochloride (EDC) and N-hydroxysuccinimide (NHS) (made by mixing equal volumes of 11.5 mg/ml EDC and 75 mg/ml NHS) (GE Healthcare, #BR-1000-50), followed by a 35 μl injection of undiluted antibody. Un-reacted sites were quenched with 35 μl of 1M ethanolamine-HCL, pH 8.5 (GE Healthcare, #BR-1000-50). […] CTLA-4 ligands human CD80-murine Ig (hCD80-mIg) (Ancell, #510-820) or human CD86-murine Ig (hCD86-mIg) (Ancell, #509-820) were bound to antibody-coated sensor chips by injection of 10 μl or 16 μl, respectively, ligand solution (2 μg/ml protein in HBS-EP buffer [10 mM HEPES pH 7.4, 150 mM NaCl, 3 mM EDTA, 0.005% (v/v) surfactant P-20, GE Healthcare, #BR-1001-88]) at a flow rate of 10 μl/min.

[2] = target: T2, full-length human CD86 on HEK293 cells (human, UniProt P42081 24-329); test: cell-based or functional assay
T2 sequence: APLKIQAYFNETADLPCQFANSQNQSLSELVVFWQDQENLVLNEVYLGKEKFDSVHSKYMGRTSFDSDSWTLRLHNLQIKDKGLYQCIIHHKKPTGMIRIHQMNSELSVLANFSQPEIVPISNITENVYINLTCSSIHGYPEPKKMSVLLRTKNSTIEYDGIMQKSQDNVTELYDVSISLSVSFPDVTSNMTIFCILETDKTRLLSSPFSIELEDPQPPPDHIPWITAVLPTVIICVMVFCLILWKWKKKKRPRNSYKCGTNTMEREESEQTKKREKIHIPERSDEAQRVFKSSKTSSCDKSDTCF

[3] = target: T3, human CD86-murine Ig fusion protein (human); test: SPR Biacore, hCD86-mIg captured
T3 construct: Bought (Ancell #509-820); also called hCD86-mIg
T3 chain: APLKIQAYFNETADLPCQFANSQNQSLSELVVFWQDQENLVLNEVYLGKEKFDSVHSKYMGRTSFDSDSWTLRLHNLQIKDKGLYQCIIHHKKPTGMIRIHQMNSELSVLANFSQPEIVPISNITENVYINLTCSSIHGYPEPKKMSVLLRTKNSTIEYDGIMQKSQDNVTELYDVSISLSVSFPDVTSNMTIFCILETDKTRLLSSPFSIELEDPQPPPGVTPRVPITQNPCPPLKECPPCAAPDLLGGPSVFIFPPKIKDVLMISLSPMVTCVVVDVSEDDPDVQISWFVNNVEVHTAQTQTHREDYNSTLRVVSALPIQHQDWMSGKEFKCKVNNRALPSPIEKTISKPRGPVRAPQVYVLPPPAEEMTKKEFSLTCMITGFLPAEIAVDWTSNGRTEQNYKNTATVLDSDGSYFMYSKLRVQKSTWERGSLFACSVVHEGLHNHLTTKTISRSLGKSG
Procedure: as §1, §2

Binder | Binding Avidity (Relative to Orencia) [1] [fold] | Kd [1] [nM] | Mean IC50 (nM), CD4+ T cell proliferation [2] [nM] | Binding Avidity (Relative to Orencia) [3] [fold] | Kd [3] [nM]
B1 | 1.34 | 0.655 | 2.24 | 1.32 | –
B2 | – | 0.219 to 0.439 | – | – | 0.523 to 1.05
